This is an account of results in patent publication US20250353894A1 (UNIVERSITAT ULM, published 2025).

This experiment addresses T1, complement protein C3b (UniProt P01024 partial chain; P01024 23-667).
T1 construct: also called factor C3b
In words: SPR, C3b coupled to chip, 1:1 steady state affinity model. The method, then:
A surface plasmon resonance (SPR)-based assay (Schmidt et al. (2013), Journal of Immunology 190:5712-5721) was used to determine the affinity of the engineered complement inhibitors for the key complement protein C3b. 1940 response units […] of C3b were coupled to the chip. The samples were run at 25 μl/min in a concentration series with the highest and the lowest concentrations being assayed in duplicate to probe reproducibility. To get an estimation of the KD value for other proteins the plot of response (during steady state) against the assayed concentration was fitted to a 1:1 steady state affinity model.
Background: SPR reads the build-up and loss of mass on a sensor chip optically.

For orientation: Kd means the free concentration of one partner at which half of the binding sites on the other are occupied at equilibrium, for simple one-to-one binding. High values mean lower affinity, low ones higher affinity.

T1 sequence (P01024 749-1663 limits assumed, chain 1 of 2): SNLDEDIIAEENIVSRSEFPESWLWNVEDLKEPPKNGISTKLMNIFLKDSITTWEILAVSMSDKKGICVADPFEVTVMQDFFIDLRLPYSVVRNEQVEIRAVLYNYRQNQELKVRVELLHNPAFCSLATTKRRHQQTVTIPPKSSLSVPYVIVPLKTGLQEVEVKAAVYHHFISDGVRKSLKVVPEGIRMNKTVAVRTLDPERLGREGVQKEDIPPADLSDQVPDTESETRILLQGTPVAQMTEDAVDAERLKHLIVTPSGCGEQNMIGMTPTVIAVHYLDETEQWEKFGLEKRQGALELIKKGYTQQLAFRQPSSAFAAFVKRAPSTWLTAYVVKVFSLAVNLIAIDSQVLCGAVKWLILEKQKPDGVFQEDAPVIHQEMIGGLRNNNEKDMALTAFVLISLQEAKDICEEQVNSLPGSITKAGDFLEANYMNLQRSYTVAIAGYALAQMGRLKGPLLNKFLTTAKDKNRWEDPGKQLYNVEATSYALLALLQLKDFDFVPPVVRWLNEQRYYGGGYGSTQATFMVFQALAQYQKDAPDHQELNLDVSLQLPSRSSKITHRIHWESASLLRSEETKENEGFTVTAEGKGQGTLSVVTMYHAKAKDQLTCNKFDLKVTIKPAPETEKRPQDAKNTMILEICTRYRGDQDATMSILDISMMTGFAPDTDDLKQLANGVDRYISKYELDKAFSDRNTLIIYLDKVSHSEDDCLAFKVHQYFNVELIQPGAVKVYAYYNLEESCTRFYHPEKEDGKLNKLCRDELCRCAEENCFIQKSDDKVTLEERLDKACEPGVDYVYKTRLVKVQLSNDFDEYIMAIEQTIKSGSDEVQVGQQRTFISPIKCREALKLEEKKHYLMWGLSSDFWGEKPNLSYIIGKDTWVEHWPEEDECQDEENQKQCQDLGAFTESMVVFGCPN
T1 sequence (P01024 23-667 limits assumed, chain 2 of 2): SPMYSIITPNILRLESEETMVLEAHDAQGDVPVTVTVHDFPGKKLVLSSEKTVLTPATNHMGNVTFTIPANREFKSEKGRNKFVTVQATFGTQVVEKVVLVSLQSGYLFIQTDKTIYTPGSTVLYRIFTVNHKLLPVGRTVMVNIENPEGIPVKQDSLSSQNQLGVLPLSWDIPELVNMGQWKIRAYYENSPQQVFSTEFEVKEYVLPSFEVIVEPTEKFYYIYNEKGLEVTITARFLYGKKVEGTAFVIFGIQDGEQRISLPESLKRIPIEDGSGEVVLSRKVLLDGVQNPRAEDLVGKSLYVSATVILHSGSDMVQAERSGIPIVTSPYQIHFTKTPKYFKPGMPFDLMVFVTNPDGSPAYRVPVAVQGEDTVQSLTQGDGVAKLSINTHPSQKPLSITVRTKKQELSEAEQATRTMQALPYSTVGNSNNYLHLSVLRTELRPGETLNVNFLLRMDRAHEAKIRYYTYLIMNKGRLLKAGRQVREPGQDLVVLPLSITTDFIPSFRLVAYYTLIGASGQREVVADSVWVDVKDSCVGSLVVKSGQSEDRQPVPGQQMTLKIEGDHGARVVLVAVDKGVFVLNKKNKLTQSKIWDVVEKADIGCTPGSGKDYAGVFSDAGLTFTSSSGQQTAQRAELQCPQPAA

B1: CR1(1-3)FH(19-20) long linker (other)
chain: QCNAPEWLPFARPTQLTDEFEFPIGTYLNYECRPGYSGRPFSIICLKNSVWTGAKDRCRRKSCRNPPDPVNGMVHVIKGIQFGSQIKYSCTKGYRLIGSSSATCIISGDTVIWDQETPICDRIPCGLPPTITNGDFISTNRENFHYGSVVTYRCNPGSGGRKVFELVGEPSIYCTSNDDQVGIWSGPAPQCIIGGGGGGGGGGGGGGKCGPPPPIDNGDITSFPLSVYAPASSVEYQCQNLYQLEGNKRITCRNGQWSEPPKCLHPCVISREIMENYNIALRWTAKQKLYSRTGESVEFVCKRGYRLSSRSHTLRTTCWDGKLEYPTCA
notes: Fusion protein with an oligo-glycine linker; also called CR1(1-3)FH(19-20)-LL
As to B1, the Kd turned out to be 389 nM.
